Source: PMC4336329 (PLoS ONE, 2015)
The campaign covered roughly 310,000 compounds. About 2,200 (0.71%) showed an effect of 50% or more. Effects have a minus sign here. The list shows a part of the results.

What follows are compounds tested against human ether-à-go-go-related gene (hERG) potassium channel (human, UniProt Q12809) (assay: primary screen, population patch clamp on CHO cells stably expressing hERG).
Sequence of human ether-à-go-go-related gene (hERG) potassium channel (Q12809 whole entry, looked up): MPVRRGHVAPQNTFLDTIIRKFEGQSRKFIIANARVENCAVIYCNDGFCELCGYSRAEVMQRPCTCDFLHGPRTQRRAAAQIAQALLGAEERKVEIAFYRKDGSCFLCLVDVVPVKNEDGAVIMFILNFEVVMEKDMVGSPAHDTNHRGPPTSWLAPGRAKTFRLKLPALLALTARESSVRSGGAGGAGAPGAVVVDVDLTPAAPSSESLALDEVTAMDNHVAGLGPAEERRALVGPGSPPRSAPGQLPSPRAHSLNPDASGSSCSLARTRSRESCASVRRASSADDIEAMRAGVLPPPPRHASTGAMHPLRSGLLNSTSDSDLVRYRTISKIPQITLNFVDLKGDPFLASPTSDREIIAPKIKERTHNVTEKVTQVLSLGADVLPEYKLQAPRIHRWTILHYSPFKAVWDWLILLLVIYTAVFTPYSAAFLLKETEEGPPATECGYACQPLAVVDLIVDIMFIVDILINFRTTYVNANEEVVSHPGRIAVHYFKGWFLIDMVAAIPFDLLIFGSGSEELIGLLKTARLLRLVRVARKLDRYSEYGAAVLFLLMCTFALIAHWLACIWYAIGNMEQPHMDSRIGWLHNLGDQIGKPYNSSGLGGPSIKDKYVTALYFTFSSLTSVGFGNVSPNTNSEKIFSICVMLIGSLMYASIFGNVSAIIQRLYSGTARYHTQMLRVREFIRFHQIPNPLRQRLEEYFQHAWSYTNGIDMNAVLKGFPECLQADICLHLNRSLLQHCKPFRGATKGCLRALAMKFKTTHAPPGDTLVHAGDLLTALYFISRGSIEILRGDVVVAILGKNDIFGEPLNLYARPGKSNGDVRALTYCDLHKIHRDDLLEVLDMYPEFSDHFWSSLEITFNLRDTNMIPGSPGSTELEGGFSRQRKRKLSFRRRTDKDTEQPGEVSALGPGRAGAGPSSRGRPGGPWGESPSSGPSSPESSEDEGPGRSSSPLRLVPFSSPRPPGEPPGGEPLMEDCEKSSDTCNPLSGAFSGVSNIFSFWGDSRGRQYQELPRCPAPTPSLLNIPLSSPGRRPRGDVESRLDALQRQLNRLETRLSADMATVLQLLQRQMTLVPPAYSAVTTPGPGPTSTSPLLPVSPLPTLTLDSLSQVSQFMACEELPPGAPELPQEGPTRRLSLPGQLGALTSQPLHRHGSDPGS

Compound | hERG current change (%, negative = inhibition) at 1uM [%]
COc1ccccc1C1CC(=O)Nc2cc3c(cc21)OCCO3 (stereo not shown) | 6.33
CCOC(=O)c1ccc(NC(=O)CSc2nc3ncccc3[nH]2)cc1 | 3.18
Cc1nnc(NC2=NCCC2)o1 | 4.91
Cc1cc(NC(=O)C2(c3ccccc3)CCCC2)no1 | 14.4
CC/C(=N/NC(=O)CCC(=O)Nc1ccccc1OC)c1ccccc1 | 7.96
O=C(CNc1cccc(C(F)(F)F)c1)N/N=C/c1cccc(Br)c1 | 14.3
Cc1ccc(NC(=O)CNC(=O)c2ccco2)nc1 | 14.1
Cc1ccccc1-n1c([O-])c([C@@H](c2cc[nH+]cc2)c2c(O)n(-c3ccccc3C)c(=O)[nH]c2=O)c(=O)[nH]c1=O | 20.3
CCCOc1ccc(C(=O)CCC(=O)NNC(=O)Cn2nc(C)cc2C)cc1 | 13
O=C(Nc1cccc(N=Cc2cc(Cl)cc(Br)c2O)c1)c1ccco1 | 3.8
CCCCN(C(=O)NC(=O)Nc1ccccc1OC)S(C)(=O)=O | 6.65
CC(=O)c1c(C(C)=O)c(C)n(-c2ccc(O)cc2)c1C | -7.34
O=C(COC(=O)c1cc(F)cc(F)c1)NCCCc1ccccc1 | 11.7
COc1ccccc1N1C(=O)CCC1(C#N)c1ccc(Br)cc1 (stereo not shown) | 5.05
COc1nc2ccccc2nc1N1CCN(c2ccc(F)cc2)CC1 | 13.9
COc1ccc(/C=N\NC(=O)CNC(=O)C(c2ccccc2)c2ccccc2)cc1[N+](=O)[O-] | -7.74
COCCCNC(=O)c1ccc(NC(C)=O)cc1 | 4.38
C#CC(CC)(CC)NC(=O)c1c(C)noc1C | -5.74
COc1cccc(CN2C(=O)c3cccc(N)c3C2=O)c1 | 4.68
Cc1ccc(S(=O)(=O)/N=S(/C)c2ccccc2)cc1 (stereo not shown) | 9.01
COc1ccc(-c2ccc(C3C(C#N)=C(N)Oc4n[nH]c(C)c43)o2)cc1 (stereo not shown) | 14.6
CS(=O)(=O)N1CCCC(C(=O)NCc2ccc(F)cc2Cl)C1 (stereo not shown) | 7.67
CC1(C)Cc2c(sc(NC(=O)C(=O)N3CCCC3)c2C(=O)O)CO1 | 8.46

Compound | hERG current change (%, negative = inhibition) at 1uM [%]
Cc1cc(C(=O)c2ccccc2)nc2ccccc12 | 10.7
Cc1cccc(CNC(=O)CC2C(=O)NCCN2C2CCCC2)c1 (stereo not shown) | 17.5
COc1ccc(N2CCN(C(=O)CSc3ccccc3N)CC2)cc1 | 8.83
O=C1CCCC(O)=C1C1NCCc2ccccc21 (stereo not shown) | 9.52
COc1ccc(CN(CC(=O)NC2CCCC2)C(=O)CCC(=O)Nc2nc(C)cs2)cc1 | -8.94
COc1ccc(C2(C(F)(F)F)NC(=O)N(C)C(=O)N2C)cc1 (stereo not shown) | 2.41
Cc1sc2ncnc(N3CCC(C(=O)Oc4cccc(Cl)c4Cl)CC3)c2c1C | 16.1
FC(F)(F)c1ccccc1N/N=C/c1cccnc1 | 13.9
Cc1ccc(OCc2nnc(SCC(=O)Nc3sc(C)c(C)c3C#N)n2C)cc1 | 18.3
Cc1ccc2[nH]c3c(N4CCc5ccccc5C4)ncnc3c2c1 | 4.65
CN(CC(=O)Nc1nccs1)S(=O)(=O)c1ccc(F)cc1 | 1.55
Cc1ccc(Nc2nc(N)c([N+](=O)[O-])c(N3CCOCC3)n2)cc1C | 9.34
O=C(C(Sc1ccccc1)c1ccccc1)N1CCN(c2ccccc2)CC1 (stereo not shown) | 14.9
Cc1ccc(-c2cc(C(F)F)n3ncc(C(=O)N4CCc5ccccc5C4)c3n2)cc1 | 9.96
CC(=O)NCCc1nc2ccccc2n1Cc1cccc(C)c1 | 2.8
O=C(c1cccc(Br)c1)N1CCN(c2ccccn2)CC1 | 14.9
O=C(CN1C(=O)CC(c2ccco2)Sc2ccccc21)NC1CCCCC1 (stereo not shown) | -10.2
CC(=O)Nc1ccc(Oc2nc(C)cc(C)n2)cc1 | 9.47
Cc1cccc(N2CCN(S(=O)(=O)c3ccc4c(c3)CCCN4C(=O)C3CCC3)CC2C)c1 (stereo not shown) | 11
Cc1nn(CC(=O)NCc2ccccc2Cl)c(C)c1[N+](=O)[O-] | 13.3
COc1ccc(C(=O)Nc2cc([N+](=O)[O-])ccc2N2CCN(C)CC2)cc1 | -9.81
C#CCn1c(=NC(=O)CSCC(=O)N2CCOCC2)sc2ccccc21 | 10.8
COc1ccc(-c2[nH]c(-c3ccc(C)cc3)nc2SCC(=O)NC2CCCC2)cc1 | 3.67

Compound | hERG current change (%, negative = inhibition) at 1uM [%]
NC(=O)NC(=O)C(Nc1ccc2c(c1)CCC2)c1ccccc1 (stereo not shown) | 16.8
CN(C(=O)c1ccc(Br)o1)C1(C)CCS(=O)(=O)C1 (stereo not shown) | 17.1
O=C(COC(=O)c1cc(=O)c2ccccc2o1)Nc1cc(Cl)ccc1Cl | 1.69
CC(=O)Nc1ccc(NC(=O)CSc2ncnc3sc(C)c(C)c23)cc1 | 11.8
COc1ccc(S(=O)(=O)Nc2c(C)nc3nc[nH]n3c2=O)cc1 | 17
CC(=O)N/C(=C/C(C)C)c1ccccc1 | 15.2
Cc1noc(C)c1Cc1ccc(O)cc1 | 6.38
Cc1cccc(Oc2ccccc2NC(=O)c2cnccn2)c1 | 9.92
Cc1noc(C)c1S(=O)(=O)N(Cc1ccccc1)C(C)C | 8.89
O=C(Cn1nc(C(F)F)cc1C1CC1)NCCC1=CCCCC1 | 9.48
Cc1nc(-c2ccc(C(=O)N3CCOCC3)cc2)cs1 | 7.02
O=C(CCCCCn1c(=S)[nH]c2cc3c(cc2c1=O)OCO3)N1CCN(C(=O)c2ccco2)CC1 | -2.83
CCC(=O)c1ccc(OCCn2cnc3ccccc32)cc1.Cl | 5.6
COc1ccc(SC[C@H](Cc2ccccc2)N2CC[C@@H](NC(=O)OCc3ccccc3)CCC2=O)cc1 | 5.35
O=C(Nc1ccc2c(c1)OCO2)c1ccc2nc[nH]c2c1 | -0.122
NS(=O)(=O)c1ccc(NC(=O)NC2CCCCC2)cc1 | 11.1
CC(=O)c1c(C)[nH]c(C(=O)OCC(=O)c2c(N)n(CC(C)C)c(=O)n(C)c2=O)c1C | 1.66
CC1(C)Oc2ccc3ccc(=O)oc3c2/C(=C/Nc2cccc(O)c2)C1=O | 9.86
Clc1ccc(-c2n[nH]c3c2Cc2ccccc2-3)cc1Cl | 19
COc1ccc(-n2c(SCC(=O)NCc3ccco3)nc3sc4c(c3c2=O)CCN(C)C4)cc1 | 9.08
Cc1cccc(OCc2nnc(SCCC(=O)O)n2-c2ccccc2)c1 | 16.2
CN(CCCCOc1ccc(F)cc1)Cc1ccccc1.O=C(O)C(=O)O | -6.33
COC(=O)c1ccc(COC(=O)CCS(=O)(=O)c2ccc(C)cc2)cc1 | -2.06

Compound | hERG current change (%, negative = inhibition) at 1uM [%]
CC(=O)C1=C(C)Nc2ncnn2C1c1ccc(Cl)cc1 (stereo not shown) | -4.77
COC(=O)c1ccc(NC(=O)c2ccccc2C(=O)Nc2ccc(C(=O)OC)cc2)cc1 | 16.7
CCc1c(O)nc2ccccn2c1=O | 9.63
O=C(CCCn1c(=O)[nH]c2ccc(Br)cc2c1=O)NCc1ccc(Cl)cc1 | 8.41
O=C(CN1CCOCC1)OCCCc1ccccc1 | 12.3
O=C(c1noc2c1CCCC2)N1CCN(c2ccccc2)CC1 | -15.8
O=C(CN(C(=O)CCC(=O)Nc1nccs1)c1ccccc1F)NCCc1ccccc1 | 19.5
CCOC(=O)CCc1c(C(=O)OCC)[nH]c(CC)c1C(=O)OCc1ccccc1 | 0.747
CCOc1ccccc1NC(=O)N1CCC(c2nc3ccc(C)cc3[nH]2)CC1 | -17.8
CCN(CC)CC1(O)CCN(C(=O)c2ccc(Cl)c(Cl)c2)CC1 | 7.95
O=S(=O)(c1ccc2ccccc2c1)N1CCCOC1 | 0.776
CCCCc1cc(=O)oc2c(C)c(OCC(=O)N3CCCC3)ccc12 | -29.8
Cc1cccc(C)c1N=C1C(=O)Nc2ccccc21 | 12.9
Cn1cc([N+](=O)[O-])c(C(=O)N2CCN(Cc3ccc4c(c3)OCO4)CC2)n1 | 41.5
Cc1ccc(S(=O)(=O)c2nc(S(C)(=O)=O)sc2NCc2ccc3c(c2)OCO3)cc1 | 5.9
O=C1C=C(c2ccccc2)C[C@@H](c2ccc(Cl)cc2)C1 | 14
Cc1ccc(N2C(=O)NC3(CCCCC3)C2=O)cc1 | 9.12
CCOC(=O)C1CCCN(CCC(=O)Nc2cc(C)ccc2C)C1.Cl (stereo not shown) | -8.02
CCOCN(C(=O)Cn1c(COC)nc2ccccc21)c1c(C)cccc1CC | 7.91
CCN(CC)CCCN1C(=O)c2oc3ccccc3c(=O)c2C1c1cccc(OC)c1OC (stereo not shown) | 3.66
O=C(NCCCN1CCOCC1)c1ccc2c(=O)n(-c3ccc(F)c(Cl)c3)c(=S)[nH]c2c1 | 15.3
CCC(=O)N(CCC(c1ccco1)C(C)C)Cc1ccccc1 (stereo not shown) | -3.31
